Test results reported in PubChem BioAssay AID881 (National Center for Advancing Translational Sciences (NCATS), 2007).
Several values for one entry are separate records, joined by “and”; a condition that tells them apart may be missing. Equal entries are not always repeated. About 610 (0.55%) of roughly 110,000 compounds were called active. The inconclusive results got no clear call from the source; some entries with a clear call stand among them for comparison. The call rests on the fitted dose curve; in most records, active means well fitted inhibition curve with a large enough effect; inconclusive means small, poorly fitted or top-dose-only effect; inactive means no such curve, though single readings can be large or run the other way. A potency beside an inconclusive call is a rough fit, not a confirmed value.

These compounds were tested against Polyunsaturated fatty acid lipoxygenase ALOX15B (Homo sapiens) (UniProt O15296) (assay: qHTS Assay for Inhibitors of 15-hLO-2 (15-human lipoxygenase 2)). Conditions: purified 15hLO-2, xylenol orange hydroperoxide absorbance; activity change, negative = inhibition: at 57.1 µM (top of the series) unless noted.
Method in brief: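 Read-out: hydroperoxide product oxidises ferrous iron, measured as xylenol orange complex via the 573-to-405 nm absorbance ratio after 30 min. Reaction: 50 nM enzyme, 15 min compound preincubation, 45 uM arachidonic acid, 90 min RT, Hepes pH 7.5 with Triton X-100.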
Further: nearly all actives have a fitted effect of over 60% in size.
On the % scale 0 is the no-effect control and ±100 the full control effect; potency means the concentration at half of the fitted maximal effect; tags describe the fitted curve by direction and shape.

UniProt O15296, sequence (O15296 whole entry, looked up): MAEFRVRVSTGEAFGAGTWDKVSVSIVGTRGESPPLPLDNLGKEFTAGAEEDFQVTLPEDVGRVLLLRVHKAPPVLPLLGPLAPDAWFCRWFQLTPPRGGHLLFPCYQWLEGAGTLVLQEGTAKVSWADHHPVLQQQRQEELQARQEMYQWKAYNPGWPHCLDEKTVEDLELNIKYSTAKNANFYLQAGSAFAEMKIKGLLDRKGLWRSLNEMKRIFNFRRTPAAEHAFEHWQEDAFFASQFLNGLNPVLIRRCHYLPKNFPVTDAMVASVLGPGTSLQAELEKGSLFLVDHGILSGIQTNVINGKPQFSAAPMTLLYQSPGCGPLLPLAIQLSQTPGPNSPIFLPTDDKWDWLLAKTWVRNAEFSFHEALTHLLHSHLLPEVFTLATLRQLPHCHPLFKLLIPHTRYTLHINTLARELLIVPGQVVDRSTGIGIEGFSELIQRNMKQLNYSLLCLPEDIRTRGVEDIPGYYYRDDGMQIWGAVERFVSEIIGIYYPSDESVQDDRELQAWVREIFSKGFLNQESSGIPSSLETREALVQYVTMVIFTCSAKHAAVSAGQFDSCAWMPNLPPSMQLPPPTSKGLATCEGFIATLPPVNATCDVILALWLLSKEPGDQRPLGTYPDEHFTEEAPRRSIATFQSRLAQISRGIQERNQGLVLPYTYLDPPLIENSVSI

Row | SMILES | Potency | activity change, negative = inhibition
1 | COc1cc(/C=N/NC(=O)Cn2nc([N+](=O)[O-])cc2C)cc(Br)c1OCc1ccccc1 | inconclusive: 25.1 µM [inhibitor, single point] | –
2 | COCCn1c(C)cc(C2=NNC(=Nc3ccc(OC)cc3)SC2)c1C | inconclusive: 12.6 µM [inhibitor, partial curve] | –
3 | O=S(=O)(c1ccc2ccccc2c1)N1CCN(S(=O)(=O)c2ccc3ccccc3c2)CC1 | – | inactive: -7.09% [at 11.4 µM]
4 | CC1(C)Cc2c(sc3[nH]c(=S)n(Cc4ccccc4)c(=O)c23)CO1 | inconclusive: 15.8 µM [inhibitor, partial curve] | –
5 | S=c1nc(-c2nc(=S)[nH]c3c2CCCCCCCCCC3)c2c([nH]1)CCCCCCCCCC2 | – | inactive: 2.05% [at 11.4 µM]
6 | COC(=O)c1ccc(CC(=O)c2ccc(O)cc2O)o1 | inconclusive: 0.0316 µM [inhibitor, full curve, poor fit] | –
7 | COc1ccc(-c2nn(-c3ccccc3)cc2/C=N/NC(=O)c2ccc(Br)o2)cc1 | inconclusive: 0.199 µM [inhibitor, full curve, poor fit] | –
8 | C[C@H]1C(c2ccccc2)=NN(c2ccccc2)[C@@H]1CO | inconclusive: 50.1 µM [inhibitor, partial curve] | –
9 | COc1ccc(C(=O)CSc2nnnn2Cc2ccccc2)cc1 | inactive | –
10 | COc1ccc(Oc2ncnc3c2ncn3Cc2ccccc2)cc1 | inactive | –
11 | COC1=CC(=O)C(O)=C/C1=C\C=C\c1ccccc1 | inconclusive: 10 µM [inhibitor, partial curve] | –
12 | O=S(=O)(CCSc1nc2ccccc2s1)c1nc2ccccc2s1 | inconclusive: 10 µM [inhibitor, partial curve] | –
13 | N#Cc1c(N)[nH]c(=S)c(C#N)c1-c1ccccc1 | inconclusive: 31.6 µM [inhibitor, single point] | –
14 | COC(=O)c1ccc(CCc2cc(O)ccc2O)cc1 | – | inactive: 12% [at 11.4 µM]
15 | CCCCCCOC(=O)c1ccccc1NC(=O)/C=C/C(=O)O | inconclusive: 12.6 µM [inhibitor, partial curve] | –
16 | Oc1cc(O)cc(/C=C/c2ccc(O)c(O)c2)c1 | active: 4.47 µM | –
17 | O=C(CC(Nc1ccccc1Cl)C(=O)OCC(=O)c1cccs1)c1ccccc1 (centres undefined) | inconclusive: 10 µM [inhibitor, partial curve] | –
18 | Cc1cccc(CNc2nc(-c3ccc(C(=O)N(C)C)cc3)nc3ccccc23)c1 | inactive | –
19 | COC(=O)Cc1nnc(NC(=O)C(C)C)s1 | inactive | –
20 | NC(=S)c1cc2ccc(O)cc2oc1=O | inconclusive: 15.8 µM [inhibitor, partial curve] | –
21 | CCOC(=O)c1sc(NC(=O)CSc2nc3c(cc2C#N)CCCCCC3)c(C#N)c1C | inconclusive: 31.6 µM [inhibitor, single point] | –
22 | N#Cc1nc(-c2ccco2)oc1N1CCN(C(c2ccccc2)c2ccccc2)CC1 | inactive | –
23 | Cc1cccc(C)c1NC(=O)CN1CCN(CCCC(c2ccc(F)cc2)c2ccc(F)cc2)CC1 | inactive | –

Row | SMILES | Potency | activity change, negative = inhibition
24 | CC(C)Cc1cc(-c2ccco2)c(C#N)c(N)n1 | inconclusive: 25.1 µM [inhibitor, single point] | –
25 | O=C(c1ccco1)N1CCN(C2CCCC2)CC1 | inactive | –
26 | Cc1c(C)c2c(c(C)c1O)CCC(C)(CCCC(C)CCCC(C)CCCC(C)C)O2 (centres undefined) | inactive | –
27 | CC(C)OCCCn1c(=NC(=O)c2ccncc2)c(C#N)cc2c(=O)n3ccccc3nc21 | inconclusive: 15.8 µM [inhibitor, partial curve] | –
28 | O=C1CC(N2CCOCC2)C(=O)N1c1cc(Cl)cc(Cl)c1 (centres undefined) | inconclusive: 25.1 µM [inhibitor, single point] | –
29 | COC(=O)c1cc(NC(=O)c2ccccc2)c(=O)oc1C/C=N\OCc1ccc(Cl)cc1Cl | inconclusive: 20 µM [inhibitor, partial curve] | –
30 | COc1ccc(Cn2nnnc2CN(Cc2cc3cc(C)ccc3[nH]c2=O)C2CCCC2)cc1 | – | inactive: 4.08% [at 2.29 µM]
31 | C=CCOC(=O)c1cc(-c2ccc(/C=C3\C(=O)NC(=O)C(C#N)=C3C)o2)ccc1Cl | active: 12.6 µM | –
32 | CCc1cc2ccc(C)cc2nc1SCC(=O)N1CCN(C(=O)c2ccco2)CC1 | inconclusive: 31.6 µM [inhibitor, single point] | –
33 | COC(=O)C(C)Sc1n[nH]c(=S)s1 (centres undefined) | inconclusive: 39.8 µM [inhibitor, single point] | –
34 | Oc1ccc(Cl)cc1-c1cc(-c2ccco2)[nH]n1 | inconclusive: 31.6 µM [inhibitor, single point] | –
35 | CC1CCc2c(sc(N)c2C(N)=O)C1 (centres undefined) | inconclusive: 25.1 µM [inhibitor, partial curve] | –
36 | COC(=O)C1OC(=O)C2OC23[C@]2(C)C(O)CC4C(C)(C)C(OC(C)=O)CC(OC(C)=O)[C@@]4(C)C2CC[C@@]13C (some centres undefined) | inactive | –
37 | Oc1ccccc1C1=NCCNC(C(F)(F)C(F)F)=C1 | inactive | –
38 | CCCCOC(=O)C1=C(C)Nc2nnnn2C1c1ccc(OC)c(OC)c1OC (centres undefined) | inconclusive: 0.251 µM [inhibitor, full curve] | –
39 | COc1cccc(Nc2ncc3nc(C)c(=O)n(Cc4cccs4)c3n2)c1 | inactive | –
40 | COC(=O)c1ccccc1NC(=S)NC(=O)c1ccccc1 | inconclusive: 31.6 µM [inhibitor, single point] | –
41 | COc1cccc(NC(=O)CN2CCN(S(=O)(=O)c3ccc(F)cc3)CC2)c1 | inactive | –
42 | CCc1ccc(N2CSC3=C(C#N)C(c4cccs4)CC(=O)N3C2)cc1 (centres undefined) | active: 20 µM | –
43 | CC[C@@]1([C@@H]2O[C@@H]([C@H]3O[C@@](O)(CO)[C@H](C)C[C@@H]3C)C[C@@H]2C)CC[C@H]([C@]2(C)CC[C@]3(C[C@H](O)[C@@H](C)[C@@H]([C@@H](C)[C@@H](OC)C(C)C(=O)O)O3)O2)O1 (some centres undefined) | – | inactive: -3.77% [at 0.0915 µM]
44 | COCC(C)n1c(C)cc(C(=O)CSc2nc3ccccc3c(=O)[nH]2)c1C (centres undefined) | inactive | –
45 | Cc1ccc(S(=O)(=O)N[C@H](C(=O)Oc2ccc3c(C(F)(F)F)cc(=O)oc3c2)c2ccccc2)cc1 | inconclusive: 25.1 µM [inhibitor, partial curve] | –
46 | Nc1ccc2oc(-c3ccccc3Cl)cc(=O)c2c1O | inconclusive: 35.5 µM [inhibitor, partial curve] | –

Row | SMILES | Potency | activity change, negative = inhibition
47 | Cc1ccc(N=c2ssnc2Cl)cc1 | inconclusive: 39.8 µM [inhibitor, single point] | –
48 | CCOC(=O)c1[nH]c(C)c(C(=O)c2cc(F)ccc2F)c1C | inactive | –
49 | COc1ccc2[nH]c3nc(SCc4nnc(-c5ccc(C)cc5)o4)nnc3c2c1 | inconclusive: 39.8 µM [inhibitor, single point] | –
50 | COc1ccc(-c2cc(C(F)(F)F)n3ncc(C(=O)NCC4CCCO4)c3n2)cc1OC (centres undefined) | inconclusive: 0.316 µM [inhibitor, full curve, poor fit] | –
51 | O=C(/C=C/c1ccc(O)cc1)c1c(O)cc(O)cc1O | inconclusive: 31.6 µM [inhibitor, partial curve, poor fit] | –
52 | CCCSc1nc2c(c(=O)[nH]c(=O)n2C)n1Cc1ccc(C)cc1 | inactive | –
53 | CCn1c(O)c(/C=N/N=C/c2ccccc2)c2ccc(C3=NNC(=O)CC3)cc21 | inconclusive: 25.1 µM [inhibitor, single point] | –
54 | Cc1cc(C)c(C#N)c(SCC(=O)N2CCCCC2)n1 | inconclusive: 39.8 µM [inhibitor, single point] | –
55 | O=C(OCc1nnc(-c2ccc(Cl)cc2)o1)c1ccc(=O)n(Cc2ccccc2)n1 | inactive | –
56 | N#CCCN1CCN(C(=S)c2ccc(-c3ccc(Cl)cc3)o2)CC1 | inconclusive: 12.6 µM [inhibitor, partial curve] | –
57 | Cc1ccc(C(=O)ONc2ccc(N=NC(=O)c3ccccc3O)cc2)cc1 | inconclusive: 39.8 µM [inhibitor, single point] | –
58 | CCOC(=O)c1c(C)[nH]c(O)c1C=Nc1ccccc1 | inconclusive: 15.8 µM [inhibitor, partial curve, poor fit] | –
59 | COc1cc(CN2CCCCC2)cc2cc(C(=O)O)c(=O)oc12 | – | inactive: -0.292% [at 11.4 µM]
60 | CCSc1cc(C2C(C(=O)OC)=C(C)NC3=C2C(=O)CCC3)c(C)o1 (centres undefined) | inconclusive: 12.6 µM [inhibitor, partial curve] | –
61 | CCc1ccc(-c2nnn(CCC(=O)OC)n2)cc1 | inactive | –
62 | CN=C(c1ccco1)n1c(=S)nc(-c2ccco2)n(C)c1=S | inconclusive: 25.1 µM [inhibitor, single point] | –
63 | O=C(NCCc1c[nH]c2ccccc12)C1CCC(Cn2c(=S)[nH]c3ccccc3c2=O)CC1 (centres undefined) | inconclusive: 25.1 µM [inhibitor, single point] | –
64 | COc1cc(-c2ncc3ccccn23)cc(OC)c1OC | inconclusive: 7.94 µM [inhibitor, partial curve] | –
65 | O=C(OCn1ncc(Cl)c(Cl)c1=O)c1cccc(C(F)(F)F)c1 | inactive | –
66 | Cc1ccc(-c2ccc(=O)n(CC(=O)N3CCN(c4cc(Cl)ccc4C)CC3)n2)cc1 | inconclusive: 31.6 µM [inhibitor, single point] | –
67 | CC(C)(C)C(=O)NC(=S)Nc1ccccc1C(=O)Nc1ccccc1 | inconclusive: 31.6 µM [inhibitor, single point] | –
68 | CC1(C)Cc2c(C#N)c(N)sc(=S)c2CS1 | inconclusive: 10 µM [inhibitor, partial curve] | –
69 | CC[C@@H]1Cc2cc(O)ccc2C2=C1c1ccc(O)cc1C[C@H]2CC | active: 7.94 µM and active: 3.55 µM | –
